Measurements taken from the supplement of paper PMC8728848.
This is one part of the list.

Experiments:
Assay in all cases: glycan array binding signal (z-score within array); higher = stronger binding
Conditions in all cases: glycan notation: IUPAC condensed, linker removed; mutation: R186I
GlcNAc(b1-4)GlcNAc = biological target: GlcNAc(b1-4)GlcNAc
In short: (§1)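 The binding signal is a Z-score computed within each array. Data were drawn from 3228 arrays in the Consortium for Functional Glycomics database, restricted to those with a known protein sequence. Scores were averaged over arrays of the same protein sequence at different concentrations or buffers, and over linkers, and negative values can be taken as non-binding.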

[1] = biological target: GlcNAc(b1-4)GlcNAc(b1-4)GlcNAc
In short: as §1

[2] = biological target: GlcNAc(b1-4)GlcNAc(b1-4)GlcNAc(b1-4)GlcNAc(b1-4)GlcNAc
In short: as §1

[3] = biological target: GlcNAc(b1-4)GlcNAc(b1-4)GlcNAc(b1-4)GlcNAc(b1-4)GlcNAc(b1-4)GlcNAc
In short: as §1

[4] = biological target: GlcNAc(b1-4)[GlcNAc(b1-6)]GalNAc
In short: as §1

[5] = biological target: GlcNAc(b1-6)Gal(b1-4)GlcNAc
In short: as §1

GlcNAc(b1-6)GalNAc = biological target: GlcNAc(b1-6)GalNAc
In short: as §1

GlcNAc3Prop(b1-4)GlcNAc = biological target: GlcNAc3Prop(b1-4)GlcNAc
In short: as §1

[6] = biological target: GlcNAc6S(b1-3)Gal(b1-4)GlcNAc
In short: as §1

Kdn(a2-3)Gal(b1-3)GalNAc = biological target: Kdn(a2-3)Gal(b1-3)GalNAc
In short: as §1

Kdn(a2-3)Gal(b1-3)GlcNAc = biological target: Kdn(a2-3)Gal(b1-3)GlcNAc
In short: as §1

Kdn(a2-3)Gal(b1-4)Glc = biological target: Kdn(a2-3)Gal(b1-4)Glc
In short: as §1

Kdn(a2-3)Gal(b1-4)GlcNAc = biological target: Kdn(a2-3)Gal(b1-4)GlcNAc
In short: as §1

[7] = biological target: Kdn(a2-3)Gal(b1-4)[Fuc(a1-3)]GlcNAc
In short: as §1

Kdn(a2-6)Gal(b1-4)GlcNAc = biological target: Kdn(a2-6)Gal(b1-4)GlcNAc
In short: as §1

[8] = biological target: Man(a1-2)Man(a1-2)Man(a1-3)Man
In short: as §1

[9] = biological target: Man(a1-2)Man(a1-2)Man(a1-6)[Man(a1-3)]Man
In short: as §1

Man(a1-2)Man(a1-3)Man = biological target: Man(a1-2)Man(a1-3)Man
In short: as §1

[10] = biological target: Man(a1-2)Man(a1-3)[Man(a1-2)Man(a1-6)]Man
In short: as §1

[11] = biological target: Man(a1-2)Man(a1-3)[Man(a1-2)Man(a1-6)]Man(a1-6)[Man(a1-2)Man(a1-2)Man(a1-3)]Man
In short: as §1

[12] = biological target: Man(a1-2)Man(a1-3)[Man(a1-2)Man(a1-6)]Man(a1-6)[Man(a1-2)Man(a1-2)Man(a1-3)]Man(b1-4)GlcNAc(b1-4)GlcNAc
In short: as §1

[13] = biological target: Man(a1-2)Man(a1-3)[Man(a1-6)]Man(a1-6)[Man(a1-2)Man(a1-3)]Man(b1-4)GlcNAc(b1-4)GlcNAc
In short: as §1

[14] = biological target: Man(a1-2)Man(a1-6)[Man(a1-3)]Man(a1-6)[Man(a1-2)Man(a1-2)Man(a1-3)]Man
In short: as §1

[15] = biological target: Man(a1-2)Man(a1-6)[Man(a1-3)]Man(a1-6)[Man(a1-2)Man(a1-2)Man(a1-3)]Man(b1-4)GlcNAc(b1-4)GlcNAc
In short: as §1

Man(a1-3)[Man(a1-6)]Man = biological target: Man(a1-3)[Man(a1-6)]Man
In short: as §1

[16] = biological target: Man(a1-3)[Man(a1-6)]Man(a1-6)[Man(a1-2)Man(a1-3)]Man(b1-4)GlcNAc(b1-4)GlcNAc
In short: as §1

[17] = biological target: Man(a1-3)[Man(a1-6)]Man(a1-6)[Man(a1-3)]Man
In short: as §1

[18] = biological target: Man(a1-3)[Man(a1-6)]Man(a1-6)[Man(a1-3)]Man(b1-4)GlcNAc(b1-4)GlcNAc
In short: as §1

[19] = biological target: Man(a1-3)[Man(a1-6)]Man(b1-4)GlcNAc(b1-4)GlcNAc
In short: as §1

Man(a1-6)Man = biological target: Man(a1-6)Man
In short: as §1

Man(b1-4)GlcNAc = biological target: Man(b1-4)GlcNAc
In short: as §1

Neu5Ac(a2-3)Gal = biological target: Neu5Ac(a2-3)Gal
In short: as §1

[20] = biological target: Neu5Ac(a2-3)Gal(b1-3)GalNAc
In short: as §1

[21] = biological target: Neu5Ac(a2-3)Gal(b1-3)GalNAc(b1-3)Gal(a1-4)Gal(b1-4)Glc
In short: as §1

[22] = biological target: Neu5Ac(a2-3)Gal(b1-3)GalNAc(b1-4)[Neu5Ac(a2-3)]Gal(b1-4)Glc
In short: as §1

[23] = biological target: Neu5Ac(a2-3)Gal(b1-3)GalNAc6S
In short: as §1

[24] = biological target: Neu5Ac(a2-3)Gal(b1-3)GlcNAc
In short: as §1

[25] = biological target: Neu5Ac(a2-3)Gal(b1-3)GlcNAc(b1-2)Man(a1-3)[Neu5Ac(a2-3)Gal(b1-3)GlcNAc(b1-2)Man(a1-6)]Man(b1-4)GlcNAc(b1-4)GlcNAc
In short: as §1

B1: Gal 3 (Homo sapiens), P17931 (protein)
chain: MADNFSLHDALSGSGNPNPQGWPGAWGNQPAGAGGYPGASYPGAYPGQAPPGAYPGQAPPGAYHGAPGAYPGAPAPGVYPGPPSGPGAYPSSGQPSAPGAYPATGPYGAPAGPLIVPYNLPLPGGVVPRMLITILGTVKPNANILDFQRGNDVAFHFNPRFNENNRRVIVCNTKLDNNWGREEIQSVFPFESGKPFKIQVLVEPDHFKVAVNDAHLLQYNHRVKKLNEISKLGISGDIDLTSASYTMI
In the case of B1, the “glycan array binding signal (z-score)” value (GlcNAc(b1-4)GlcNAc) is reported as -0.187, the “glycan array binding signal (z-score)” value [1] is reported as -0.173 and the “glycan array binding signal (z-score)” value [2] is reported as -0.138. The “glycan array binding signal (z-score)” value [3] was -0.195, the “glycan array binding signal (z-score)” value [4] was -0.17 and the “glycan array binding signal (z-score)” value [5] was -0.188. For the same binder, the “glycan array binding signal (z-score)” value (GlcNAc(b1-6)GalNAc) was -0.169, the “glycan array binding signal (z-score)” value (GlcNAc3Prop(b1-4)GlcNAc) was -0.168 and the “glycan array binding signal (z-score)” value [6] was -0.172. The “glycan array binding signal (z-score)” value (Kdn(a2-3)Gal(b1-3)GalNAc) was -0.154, the “glycan array binding signal (z-score)” value (Kdn(a2-3)Gal(b1-3)GlcNAc) was -0.04 and the “glycan array binding signal (z-score)” value (Kdn(a2-3)Gal(b1-4)Glc) was -0.187. For the same binder, the “glycan array binding signal (z-score)” value (Kdn(a2-3)Gal(b1-4)GlcNAc) was -0.189, the “glycan array binding signal (z-score)” value [7] was -0.185 and the “glycan array binding signal (z-score)” value (Kdn(a2-6)Gal(b1-4)GlcNAc) was -0.154. The “glycan array binding signal (z-score)” value [8] was -0.105, the “glycan array binding signal (z-score)” value [9] was -0.146 and the “glycan array binding signal (z-score)” value (Man(a1-2)Man(a1-3)Man) was -0.107. For the same binder, the “glycan array binding signal (z-score)” value [10] was -0.193, the “glycan array binding signal (z-score)” value [11] was -0.075 and the “glycan array binding signal (z-score)” value [12] was -0.171. The “glycan array binding signal (z-score)” value [13] was -0.193, the “glycan array binding signal (z-score)” value [14] was -0.189 and the “glycan array binding signal (z-score)” value [15] was -0.036. For the same binder, the “glycan array binding signal (z-score)” value (Man(a1-3)[Man(a1-6)]Man) was -0.134, the “glycan array binding signal (z-score)” value [16] was -0.178 and the “glycan array binding signal (z-score)” value [17] was -0.192. The “glycan array binding signal (z-score)” value [18] was -0.159, the “glycan array binding signal (z-score)” value [19] was -0.194 and the “glycan array binding signal (z-score)” value (Man(a1-6)Man) was -0.185. The “glycan array binding signal (z-score)” value (Man(b1-4)GlcNAc) was -0.132, the “glycan array binding signal (z-score)” value (Neu5Ac(a2-3)Gal) was -0.084 and the “glycan array binding signal (z-score)” value [20] was -0.098. For the same binder, the “glycan array binding signal (z-score)” value [21] was -0.184, the “glycan array binding signal (z-score)” value [22] was -0.111 and the “glycan array binding signal (z-score)” value [23] was -0.195. The “glycan array binding signal (z-score)” value [24] was -0.154 and the “glycan array binding signal (z-score)” value [25] was -0.195.
